Test results from the supplement of paper PMC9446081.
The campaign covered roughly 39,000 compounds. About 220 (0.56%) showed activity. Some of the results follow.

The molecules below were run on Escherichia coli K-12 BW25113 (assay: relative growth (OD600 normalised to plate interquartile mean) (fraction); higher = less growth inhibition, active = 0.2 or less). Conditions: 50 µM; LB; incubation time: overnight (16-24 h).
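Further: static incubation at 37 °C against the wild-type strain, values averaged over two biological replicates.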

Row | SMILES | relative growth
1 | COCC#Cc1cnc2c(c1)C(=O)N([C@@H](C)CO)C[C@H](C)[C@H](CN(C)C(=O)c1cnccn1)O2 | inactive: 0.999
2 | CN1CCN(c2cc3c(cc2F)c(=O)c(C(=O)O)cn3-c2ccc(F)cc2)CC1.Cl | active: 0.0477
3 | CCCC#Cc1cnc2c(c1)C(=O)N([C@@H](C)CO)C[C@H](C)[C@@H](CN(C)S(=O)(=O)c1cn(C)cn1)O2 | inactive: 0.993
4 | NCc1cnco1 | inactive: 0.976
5 | COc1ccc(-c2coc3cc(O)ccc3c2=O)cc1 | inactive: 1.05
6 | CO[C@H]1CN(C)C(=O)c2ccc(NC(=O)Nc3cccc(Cl)c3)cc2OC[C@@H](C)N(C(=O)Nc2c(C)noc2C)C[C@H]1C | inactive: 0.977
7 | CN1CC2(CCN(C(=O)[C@H]3CCC(=O)N3)CC2)COc2ccccc2S1(=O)=O | inactive: 0.991
8 | Nc1ccc(-c2ccco2)cc1 | inactive: 1.02
9 | C[C@H](CO)N1C[C@H](C)[C@H](CN(C)C(=O)Nc2ccc3c(c2)OCO3)Oc2c(NC(=O)c3cnccn3)cccc2C1=O | inactive: 0.99
10 | Cn1c(C(=O)N2CCCO[C@@H](Cn3cccn3)C2)cc(=O)n(C)c1=O | inactive: 0.995
11 | C[C@@H]1CCCCO[C@H](CN(C)C(=O)Nc2ccc3c(c2)OCO3)[C@H](C)CN([C@@H](C)CO)C(=O)c2cc(NC(=O)c3ccccc3)ccc2O1 | inactive: 1.01
12 | C[C@@H]1CN([C@@H](C)CO)C(=O)c2cc(NC(=O)Cn3cnnn3)ccc2O[C@@H]1CN(C)S(=O)(=O)c1cn(C)cn1 | inactive: 1.02
13 | Cc1ccc(S(=O)(=O)Nc2ccc3c(c2)C(=O)N([C@@H](C)CO)C[C@H](C)[C@@H](CN(C)C(=O)Nc2ccc(C(F)(F)F)cc2)OCCCC[C@H](C)O3)cc1 | inactive: 1.02
14 | CN1C(=O)c2cc(NC(=O)c3ccc(F)cc3)ccc2OC[C@H]2O[C@H](CC(=O)N3CCOCC3)CC[C@@H]21 | inactive: 1.01
15 | Cc1cc(N)no1 | inactive: 0.987
16 | Cc1cc2nc(C(=O)NC[C@H]3CCCS(=O)(=O)C3)cc(-c3ccccc3Cl)c2c(C)c1-c1ccncc1 | inactive: 1.04
17 | C[C@@H]1CCCCO[C@@H](CN(C)Cc2ccc(C(=O)O)cc2)[C@H](C)CN([C@@H](C)CO)C(=O)c2cc(NC(=O)Nc3ccc4c(c3)OCO4)ccc2O1 | inactive: 1.02
18 | C[C@@H]1CCCCO[C@@H](CN(C)C(=O)NC2CCCCC2)[C@H](C)CN([C@@H](C)CO)C(=O)c2cc(NC(=O)Nc3cccc4ccccc34)ccc2O1 | inactive: 1.04
19 | COCC(=O)Nc1ccc2c(c1)OC[C@@H](C)N(C(=O)Cc1cccnc1)C[C@@H](C)[C@H](OC)CN(C)C2=O | inactive: 1.01
20 | CO[C@H]1[C@H](O)[C@@H](O)[C@H](O)[C@H](O)[C@@H]1O | inactive: 1.01
21 | C[C@@H]1CN([C@H](C)CO)C(=O)c2cc(NC(=O)CCCN(C)C)ccc2O[C@@H](C)CCCCO[C@@H]1CN(C)S(C)(=O)=O | inactive: 0.815
22 | Clc1cccc(Cl)c1CSCc1cc2ccccc2o1 | inactive: 0.969

Row | SMILES | relative growth
23 | C[C@H](CO)N1C[C@H](C)[C@@H](CN(C)Cc2ccc(C(=O)O)cc2)OCCCC[C@H](C)Oc2ccc(NC(=O)Nc3ccccc3)cc2C1=O | inactive: 1.05
24 | CO[C@@H]1CN(C)C(=O)c2cc(NC(=O)C3CC3)ccc2OC[C@@H](C)N(C(=O)Cc2ccccn2)C[C@@H]1C | inactive: 1.01
25 | C=CC[C@@H](CC(=O)N[C@H](CO)Cc1ccccc1)C(=O)N[C@H](C)COC(=O)[C@H](CC=C)CC(=O)OC(C)(C)C | inactive: 0.992
26 | C[C@@H]1CCCCO[C@@H](CN(C)S(=O)(=O)c2ccc(F)cc2)[C@@H](C)CN([C@@H](C)CO)C(=O)c2cc(NS(=O)(=O)c3ccc(Cl)cc3)ccc2O1 | inactive: 0.982
27 | CN[C@@H](C)C(=O)N[C@H]1CN(C(=O)CC(C)C)CC[C@H]2CC[C@@H](C(=O)NC(c3ccccc3)c3ccccc3)N2C1=O | inactive: 0.987
28 | Cc1ccc(S(=O)(=O)N(C)C[C@H]2OCCCC[C@@H](C)Oc3ccc(NC(=O)CCC(F)(F)F)cc3C(=O)N([C@@H](C)CO)C[C@H]2C)cc1 | inactive: 0.997
29 | C[C@H](CO)N1C[C@H](C)[C@@H](CN(C)CC2CC2)OCCCC[C@H](C)Oc2ccc(NC(=O)CCC(F)(F)F)cc2C1=O | inactive: 0.976
30 | Nc1cc(=O)nc2[nH][nH]c(=S)n12 | inactive: 0.963
31 | C=CCN1C(=O)[C@@H]2[C@@H](C1=O)[C@@H]1C=C[C@@H]2C1 | inactive: 0.981
32 | C[C@@H]1CN([C@H](C)CO)C(=O)Cc2cc(NC(=O)Nc3cccc4ccccc34)ccc2O[C@@H]1CN(C)Cc1ccc(Cl)c(Cl)c1 | inactive: 1.03
33 | C[C@@H]1CN([C@@H](C)CO)C(=O)c2cccc(NC(=O)Nc3ccc(C(F)(F)F)cc3)c2O[C@@H]1CN(C)CC1CCCCC1 | inactive: 0.956
34 | C[C@H](CO)N1C[C@H](C)[C@@H](CN(C)C(=O)Nc2ccc(C(F)(F)F)cc2)Oc2ccc(NC(=O)Nc3ccc(C(F)(F)F)cc3)cc2CC1=O | inactive: 1.02
35 | O=C(C[C@H]1CC[C@H]2[C@@H](COC[C@@H](O)CN2S(=O)(=O)c2ccc(F)cc2)O1)N[C@H]1CCN(Cc2ccccc2)C1 | inactive: 1.03
36 | CN1C(=O)c2cc(NS(C)(=O)=O)ccc2OC[C@@H]2O[C@H](CC(=O)N3CCOCC3)CC[C@@H]21 | inactive: 1
37 | C[C@H]1CN([C@@H](C)CO)C(=O)Cc2cc(NC(=O)Cn3cnnn3)ccc2O[C@@H]1CN(C)CC1CC1 | inactive: 0.984
38 | C[C@H](CO)N1C[C@H](C)[C@H](CN(C)C(=O)c2ccncc2)OCCCC[C@H](C)Oc2ccc(NS(=O)(=O)c3cn(C)cn3)cc2C1=O | inactive: 1
39 | C[C@@H]1CN([C@H](C)CO)C(=O)c2cccc(NC(=O)Nc3ccc(F)cc3)c2O[C@H]1CN(C)Cc1ccc(Oc2ccccc2)cc1 | inactive: 1
40 | O=C(C[C@@H]1CC[C@H]2[C@@H](COC[C@H](O)CN2C(=O)Nc2ccc3c(c2)OCO3)O1)N1CCN(c2ccccc2)CC1 | inactive: 0.992
41 | COc1ccc(S(=O)(=O)N(C)C[C@@H]2OCc3cn(nn3)CCCC(=O)N([C@@H](C)CO)C[C@H]2C)cc1 | inactive: 0.986
42 | C[C@H]1CN([C@@H](C)CO)S(=O)(=O)c2ccc(C#CC3(O)CCCC3)cc2O[C@@H]1CN(C)C(=O)Cc1ccccc1 | inactive: 0.983
43 | O=C(CN1CCOCC1)N[C@H]1CC[C@@H](CCNC(=O)C2CCCCC2)O[C@H]1CO | inactive: 0.992
44 | CCCC12CN3CC(CCC)(CN(C1)C3[C@@H](O)[C@@H](O)[C@@H](O)CO)C2=O (some centres undefined) | inactive: 0.902

Row | SMILES | relative growth
45 | CCOC(=O)N(C)C[C@H]1OCc2cnnn2CCCC(=O)N([C@H](C)CO)C[C@H]1C | inactive: 0.999
46 | C[C@@H]1CN([C@@H](C)CO)C(=O)c2cc(NC(=O)CCN3CCOCC3)ccc2O[C@@H]1CN(C)CC1CCCCC1 | inactive: 1
47 | C=CCOC(=O)[C@@H]1[C@H]2C(=O)O[C@H](c3ccccc3)[C@H](c3ccccc3)N2[C@H](c2ccc(OCCOC(=O)[C@H]3C[C@H]4C(=O)N[C@@H](CCCCNC(C)=O)C(=O)N4[C@H]3c3cccc(OCCO)c3)cc2)[C@@]12C(=O)Nc1ccc(I)cc12 | inactive: 1.04
48 | OCc1cc2c(F)cccc2s1 | inactive: 0.995
49 | C[C@H](N[C@@H](CCc1ccccc1)C(=O)O)C(=O)N1CCC[C@H]1C(=O)O | inactive: 0.988
50 | C[C@H]1CCCCO[C@H](CN(C)Cc2ccc(C(=O)O)cc2)[C@@H](C)CN([C@@H](C)CO)C(=O)c2cc(NC(=O)Nc3ccc4c(c3)OCO4)ccc2O1 | inactive: 1.03
51 | COCCNC(=O)[C@@H]1[C@@H](CO)[C@@H]2Cn3c(cccc3=O)[C@H]1N2S(=O)(=O)c1ccccc1C | inactive: 0.991
52 | NCC1CCOCC1 | inactive: 1.02
53 | COc1ccc(S(=O)(=O)N(C)C[C@@H]2OCc3cnnn3CCCC(=O)N([C@@H](C)CO)C[C@H]2C)cc1 | inactive: 0.946
54 | NC(=O)C1CCN(C(=O)c2ccc(NC3=N[C@H]4CS(=O)(=O)C[C@@H]4S3)cc2)CC1 | inactive: 1.01
55 | Cc1noc(C)c1S(=O)(=O)Nc1ccc2c(c1)C(=O)N([C@H](C)CO)C[C@H](C)[C@@H](CN(C)S(=O)(=O)c1cn(C)cn1)OCCCC[C@@H](C)O2 | inactive: 0.991
56 | C[C@@H]1CN([C@@H](C)CO)C(=O)c2cc(NC(=O)Nc3cccc4ccccc34)ccc2O[C@@H]1CN(C)S(=O)(=O)c1ccc(Cl)cc1 | inactive: 1.02
57 | CN(C)CC(=O)N[C@H]1CC[C@H](CCNC(=O)C2CCC2)O[C@H]1CO | inactive: 1
58 | CCCn1c(=O)c(C#N)cn(C2CC2)c1=O | inactive: 0.986
59 | COc1cc(OC)c2c(=O)c(OC)c(-c3ccccc3)oc2c1 | inactive: 1.02
60 | COCC(=O)N1CC[C@]2(CC1)CN(Cc1ccc3c(c1)OCO3)[C@H](CO)c1c2c2ccc(cc2n1C)OC | inactive: 1.01
61 | C[C@H](CO)N1C[C@H](C)[C@H](CN(C)C)Oc2ccc(NS(=O)(=O)c3cn(C)cn3)cc2CC1=O | inactive: 1.01
62 | S=C(Nc1ccccc1)Nc1ccc2c(c1)oc1ccccc12 | inactive: 0.966
63 | COc1cccc(S(=O)(=O)N(C)C[C@H]2Oc3ncc(-c4cccc(C(=O)N(C)C)c4)cc3C(=O)N([C@H](C)CO)C[C@H]2C)c1 | inactive: 1.02
64 | C[C@H](CO)N1C[C@H](C)[C@H](CN(C)S(C)(=O)=O)Oc2ccc(NS(=O)(=O)c3ccc(Cl)cc3)cc2CC1=O | inactive: 0.982
